From the antibiotic and cytotoxicity screens of Wong et al. (2023)
This is one part of the list.

Columns and labels:
HSkMC = human skeletal muscle cells; experiment: cytotoxicity call (relative viability < 0.9); settings: 10 µM
HepG2 = experiment: cytotoxicity call (relative viability < 0.9); settings: 10 µM
S. aureus RN4220 = experiment: growth inhibition call (relative growth <= 0.2); settings: 50 µM

SMILES | cytotoxicity call (HSkMC) | cytotoxicity call (HepG2) | growth inhibition call (S. aureus RN4220)
COc1ccc(NC(=O)Nc2ccc3c(c2)C(=O)N([C@H](C)CO)C[C@H](C)[C@H](CN(C)C(=O)Nc2ccccc2)OCCCC[C@H](C)O3)cc1 | inactive | inactive | inactive
Cc1cccc(S(=O)(=O)N2C[C@@H](O)COC[C@@H]3O[C@@H](CC(=O)NCc4ccc5c(c4)OCO5)CC[C@H]32)c1 | inactive | inactive | inactive
CN1C(=O)c2cc(NC(=O)c3cnccn3)ccc2OC[C@H]2O[C@@H](CC(=O)N[C@H]3CCN(Cc4ccccc4)C3)CC[C@@H]21 | inactive | inactive | inactive
Cc1noc(C)c1NC(=O)N(C)C[C@@H]1OCCCC[C@H](C)Oc2ccc(NC(=O)CCC(F)(F)F)cc2C(=O)N([C@H](C)CO)C[C@@H]1C | inactive | inactive | inactive
COc1ccccc1N1CCN(CCCNc2cc(=O)n(C)c(=O)n2C)CC1.Cl | inactive | inactive | inactive
Cc1noc(C)c1S(=O)(=O)N(C)C[C@@H]1Oc2ccc(NC(=O)CCN3CCOCC3)cc2C(=O)N([C@H](C)CO)C[C@@H]1C | inactive | inactive | inactive
C[C@@H]1CCCCO[C@@H](CN(C)S(=O)(=O)c2cn(C)cn2)[C@H](C)CN([C@H](C)CO)C(=O)c2cc(NS(=O)(=O)c3cccs3)ccc2O1 | inactive | inactive | inactive
O=C(C[C@@H]1CC[C@@H]2[C@H](COC[C@H](O)CN2S(=O)(=O)c2ccc(Oc3ccccc3)cc2)O1)NCCN1CCCCC1 | inactive | inactive | inactive
C[C@@H]1CCCCO[C@H](CN(C)S(=O)(=O)c2ccccc2)[C@@H](C)CN([C@@H](C)CO)C(=O)c2cc(NS(=O)(=O)c3cn(C)cn3)ccc2O1 | inactive | inactive | inactive
C[C@H]1CN([C@@H](C)CO)C(=O)Cc2cc(NC(=O)NC3CCCCC3)ccc2O[C@H]1CN(C)Cc1ccc(C(=O)Nc2ccccc2N)cc1 | inactive | active | inactive
COc1ccc2c(c1)[n+]([O-])c1c([n+]2[O-])CCC1 | inactive | inactive | inactive
C[C@H](CO)N1C[C@H](C)[C@H](CN(C)S(=O)(=O)c2ccc(Oc3ccccc3)cc2)OCc2cn(nn2)CCCC1=O | inactive | inactive | inactive
OCCN1CCN(CCCN2c3ccccc3Sc3ccc(Cl)cc32)CC1 | inactive | active | inactive
CC(=O)Nc1c(O)[nH]c(SCC(=O)N2CCOCC2)nc1=O | inactive | inactive | inactive
Cc1ccc(S(=O)(=O)N(C)C[C@H]2Oc3ccc(NC(=O)C4CC4)cc3C(=O)N([C@@H](C)CO)C[C@H]2C)cc1 | inactive | inactive | inactive
CCS(=O)(=O)c1ccccc1C(N)=O | inactive | inactive | inactive
COCn1c(=O)[nH]c2ccccc21 | inactive | inactive | inactive
Cc1ccc(S(=O)(=O)N(C)C[C@@H]2Oc3ccc(NS(=O)(=O)c4cccs4)cc3C(=O)N([C@@H](C)CO)C[C@H]2C)cc1 | inactive | inactive | inactive
Cc1c(-c2ccc(C(N)=O)c3[nH]c4cc(C(C)(C)O)ccc4c23)cccc1-n1cnc2ccccc2c1=O | active | active | inactive

SMILES | cytotoxicity call (HSkMC) | cytotoxicity call (HepG2) | growth inhibition call (S. aureus RN4220)
C[C@@H]1CN([C@@H](C)CO)C(=O)c2cccc(NS(C)(=O)=O)c2O[C@H]1CN(C)Cc1ccc(C(=O)Nc2ccccc2N)cc1 | inactive | inactive | inactive
C[C@H]1CCCCO[C@H](CN(C)S(=O)(=O)c2cn(C)cn2)[C@@H](C)CN([C@@H](C)CO)C(=O)c2cc(NS(=O)(=O)c3ccc(F)cc3)ccc2O1 | inactive | inactive | inactive
CN1C(=O)c2cc(NC(=O)c3ccc(F)c(F)c3)ccc2OC[C@@H]2O[C@H](CC(=O)N3CCOCC3)CC[C@@H]21 | inactive | inactive | inactive
C[C@H](CO)N1C[C@H](C)[C@H](CN(C)Cc2ccc(Cl)c(Cl)c2)Oc2ccc(NC(=O)NC3CCCCC3)cc2C1=O | inactive | inactive | inactive
O=C(C[C@H]1C[C@@H]2c3cc(NC(=O)c4cccnc4)ccc3O[C@@H]2[C@@H](CO)O1)NCc1cc(F)ccc1F | inactive | inactive | inactive
OS(=O)(=O)c1ccc(cc1)/C/1=C\2/N/C(=C(\C3=N/C(=C(/c4ccc(cc4)S(=O)(=O)O)c4ccc([nH]4)/C(=C\4/C=CC1=N4)c1ccc(cc1)S(=O)(=O)O)C=C3)c1ccc(cc1)S(=O)(=O)O)C=C2 | inactive | inactive | inactive
C[C@H]1CN([C@@H](C)CO)C(=O)c2cccc(NC(=O)Nc3cccc4ccccc34)c2O[C@@H]1CN(C)S(=O)(=O)c1ccccc1 | inactive | inactive | inactive
COc1ccc(S(=O)(=O)Nc2ccc3c(c2)C(=O)N([C@H](C)CO)C[C@@H](C)[C@H](CN(C)C(=O)CCC(F)(F)F)OCCCC[C@@H](C)O3)cc1 | inactive | inactive | inactive
C[C@@H]1CN([C@H](C)CO)C(=O)c2cc(NS(=O)(=O)c3ccc(F)cc3)ccc2O[C@@H]1CN(C)Cc1ccncc1 | inactive | inactive | inactive
COc1ccc(NC(=O)Nc2ccc3c(c2)C(=O)N([C@H](C)CO)C[C@H](C)[C@H](CN(C)C(=O)NC(C)C)OCCCC[C@@H](C)O3)cc1 | inactive | inactive | inactive
CC(C)CN1C(=O)C[C@@H](N2CCOCC2)C1=O | inactive | inactive | inactive
O=C(O)CCN1C(=O)c2ccncc2C1=O | inactive | inactive | inactive
C[C@@H]1CCCCO[C@@H](CN(C)S(=O)(=O)c2ccccc2)[C@@H](C)CN([C@H](C)CO)C(=O)c2cc(NC(=O)Nc3ccc(C(F)(F)F)cc3)ccc2O1 | inactive | inactive | inactive
CCC(C)(C)c1ccc(CC(C)CN2CC(C)OC(C)C2)cc1.Cl (stereo not drawn) | inactive | inactive | inactive
Nc1ccccc1OCc1ccccc1 | inactive | inactive | inactive
CN(C)Cc1cn(CC[C@H]2CC[C@H](N)[C@@H](CO)O2)nn1 | inactive | inactive | inactive
CCOC(=O)[C@H]1CC(CC2OCCO2)=NO1 | inactive | inactive | inactive
COCC#Cc1ccc2c(c1)O[C@H](CN(C)C(=O)CN(C)C)[C@@H](C)CN([C@@H](C)CO)S2(=O)=O | inactive | inactive | inactive
C[C@@H]1CN([C@@H](C)CO)C(=O)CCCn2nncc2CO[C@H]1CN(C)S(=O)(=O)c1ccc2c(c1)OCCCO2 | inactive | inactive | inactive

SMILES | cytotoxicity call (HSkMC) | cytotoxicity call (HepG2) | growth inhibition call (S. aureus RN4220)
COc1ccc(NC(=O)N(C)C[C@@H]2OCCCC[C@H](C)Oc3ccc(NS(=O)(=O)c4c(C)noc4C)cc3C(=O)N([C@@H](C)CO)C[C@@H]2C)cc1 | inactive | inactive | inactive
C[C@H](CO)N1C[C@H](C)[C@@H](CN(C)S(=O)(=O)c2ccccc2)Oc2ccc(NC(=O)CCC(F)(F)F)cc2CC1=O | inactive | inactive | inactive
C[C@H](CO)N1C[C@H](C)[C@H](CN(C)C(=O)Cc2ccccc2)OCCCC[C@H](C)Oc2ccc(NC(=O)Nc3ccc4c(c3)OCO4)cc2C1=O | inactive | active | inactive
C=CCSCC1Nc2cc(Cl)c(S(N)(=O)=O)cc2S(=O)(=O)N1 (stereo not drawn) | inactive | inactive | inactive
CN(C)C(=N)NCCC[C@H](N)C(=O)O | inactive | inactive | inactive
C[C@H]1CN([C@@H](C)CO)C(=O)Cc2cc(NC(=O)Nc3ccc(C(F)(F)F)cc3)ccc2O[C@@H]1CN(C)Cc1ccc(C(=O)Nc2ccccc2N)cc1 | inactive | inactive | inactive
COCCCNc1ncnc(N)c1[N+](=O)[O-] | inactive | inactive | inactive
CO[C@@H]1CN(C)C(=O)c2ccc(NC(=O)c3ccc(Oc4ccccc4)cc3)cc2OC[C@@H](C)N(C(C)=O)C[C@H]1C | inactive | inactive | inactive
C[C@H]1CN([C@@H](C)CO)C(=O)c2cccc(NC(=O)CCCCCC(=O)Nc3ccccc3N)c2O[C@H]1CN(C)Cc1ccc(-c2ccccc2)cc1 | inactive | inactive | inactive
C[C@H]1CN([C@@H](C)CO)C(=O)c2cc(NS(=O)(=O)c3cn(C)cn3)ccc2O[C@H]1CN(C)C(=O)Nc1ccc2c(c1)OCO2 | inactive | inactive | inactive
COc1ccc(CCN2C(=O)[C@@]3(Cc4ccccc42)c2ccccc2C(=O)N(C2CCCCC2)[C@H]3c2ccc(CO)cc2)cc1 | inactive | inactive | inactive
Cc1noc(C)c1NC(=O)Nc1ccc2c(c1)C(=O)N([C@H](C)CO)C[C@@H](C)[C@H](CN(C)Cc1ccc(Cl)c(Cl)c1)O2 | inactive | inactive | inactive
C[C@@H]1CCCCO[C@H](CN(C)S(=O)(=O)c2ccc(Cl)cc2)[C@@H](C)CN([C@H](C)CO)C(=O)c2cc(NC(=O)CCCCCC(=O)Nc3ccccc3N)ccc2O1 | inactive | inactive | inactive
C[C@@H]1CN([C@@H](C)CO)C(=O)c2cc(NC(=O)CCC(F)(F)F)ccc2O[C@@H](C)CCCCO[C@H]1CN(C)Cc1ccc(C(=O)O)cc1 | inactive | inactive | inactive
COCC#Cc1ccc2c(c1)O[C@H](CN(C)C(=O)COC)[C@H](C)CN([C@H](C)CO)S2(=O)=O | inactive | inactive | inactive
CCCC(=O)Nc1ccc2c(c1)C(=O)N(C)C[C@@H](OC)[C@H](C)CN(Cc1ccc(-c3ccccn3)cc1)[C@H](C)CO2 | inactive | inactive | inactive
C[C@H](CO)N1C[C@H](C)[C@@H](CN(C)C(=O)Nc2ccc(C(F)(F)F)cc2)Oc2ccc(NC(=O)Nc3ccc(F)cc3)cc2C1=O | inactive | active | inactive
O=C(C[C@H]1C[C@@H]2c3cc(NS(=O)(=O)c4ccc(F)cc4)ccc3O[C@@H]2[C@@H](CO)O1)NC1CCCC1 | inactive | inactive | inactive
